Here are results for 55 compounds from article PMC4336329 (PLoS ONE, 2015).

The structures appear in SMILES notation. About 14,000 (4.5%) of roughly 310,000 compounds showed an effect of 50% or more. Effects have a minus sign here. The list shows a part of the results.
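Also: peak tail current of the secondary pulse compared with the same well before compound.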

The assay deals with human ether-à-go-go-related gene (hERG) potassium channel (human, UniProt Q12809). Nature of the assay: primary screen, population patch clamp on CHO cells stably expressing hERG.
Sequence of human ether-à-go-go-related gene (hERG) potassium channel (Q12809 whole entry, looked up): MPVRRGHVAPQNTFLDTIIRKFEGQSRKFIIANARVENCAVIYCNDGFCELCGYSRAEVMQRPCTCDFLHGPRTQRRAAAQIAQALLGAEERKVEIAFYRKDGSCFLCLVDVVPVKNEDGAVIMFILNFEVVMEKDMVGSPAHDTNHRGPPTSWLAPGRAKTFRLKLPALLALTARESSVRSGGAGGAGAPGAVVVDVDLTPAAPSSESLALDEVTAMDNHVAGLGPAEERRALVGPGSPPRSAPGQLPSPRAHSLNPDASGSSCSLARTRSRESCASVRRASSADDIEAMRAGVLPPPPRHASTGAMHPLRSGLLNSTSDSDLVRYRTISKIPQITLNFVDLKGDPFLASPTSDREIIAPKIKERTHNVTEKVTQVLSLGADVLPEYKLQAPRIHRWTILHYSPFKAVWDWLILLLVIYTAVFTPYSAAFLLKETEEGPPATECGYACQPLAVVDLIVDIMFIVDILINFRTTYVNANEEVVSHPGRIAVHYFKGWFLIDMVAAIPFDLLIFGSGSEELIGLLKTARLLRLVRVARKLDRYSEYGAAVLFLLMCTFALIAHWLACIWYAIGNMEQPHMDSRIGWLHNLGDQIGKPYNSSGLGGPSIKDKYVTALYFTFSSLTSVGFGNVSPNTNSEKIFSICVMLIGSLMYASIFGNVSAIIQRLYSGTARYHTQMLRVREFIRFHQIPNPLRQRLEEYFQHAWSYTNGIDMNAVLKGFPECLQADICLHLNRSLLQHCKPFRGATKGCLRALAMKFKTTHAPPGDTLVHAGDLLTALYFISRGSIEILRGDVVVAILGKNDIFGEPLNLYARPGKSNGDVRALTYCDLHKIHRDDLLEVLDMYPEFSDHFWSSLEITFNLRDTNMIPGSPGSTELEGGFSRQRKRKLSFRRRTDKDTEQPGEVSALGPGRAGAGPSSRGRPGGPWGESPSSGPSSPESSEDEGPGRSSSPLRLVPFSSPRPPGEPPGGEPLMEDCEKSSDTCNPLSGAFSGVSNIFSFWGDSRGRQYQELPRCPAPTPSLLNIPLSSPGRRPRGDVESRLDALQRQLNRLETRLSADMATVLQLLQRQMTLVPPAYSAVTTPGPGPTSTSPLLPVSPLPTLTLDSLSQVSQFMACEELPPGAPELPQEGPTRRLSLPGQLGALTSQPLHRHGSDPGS
Regarding `C=CCn1c(NCCc2ccccc2)nc2c1c(=O)n(C)c(=O)n2C`, the “hERG current change (%, negative = inhibition) at 10uM” value was -1.17%.
Next, `N#CCCN(C(=O)COC(=O)c1ccc(CNS(=O)(=O)c2ccc(F)c(Cl)c2)cc1)c1ccc(F)cc1`: -5.28%; `CC(=O)N1CCCc2cc(S(=O)(=O)N3CCC(C)CC3)ccc21`: -12.9%.
Regarding `O=C1c2ccccc2C(=O)N1CCSc1nnc(-c2ccco2)n1Cc1ccccc1`, the “hERG current change (%, negative = inhibition) at 10uM” value is recorded as -72.8%.
Regarding `CCOC(=O)c1c(SCc2ccccc2)n[nH]c1N`, the “hERG current change (%, negative = inhibition) at 10uM” value stood at 13.3%.
Take `C=C(C)[C@@H]1C2C(=O)O[C@H]1[C@H]1OC(=O)[C@@]34OC3C[C@]2(O)[C@@]14C` (stereo partly shown): the “hERG current change (%, negative = inhibition) at 10uM” value was found to be 10.7%.
`C/C(=C\C(=O)c1ccc(F)cc1)NCc1ccc2c(c1)OCO2`: the “hERG current change (%, negative = inhibition) at 10uM” value was 0.418%.
For `COc1cccc(-c2ccc(-c3noc(-c4cccs4)n3)c(OC)n2)c1`, the “hERG current change (%, negative = inhibition) at 10uM” value was found to be 8.39%.
Regarding `CCCCNC(=S)NNC(=O)c1csc(CC)c1`, the “hERG current change (%, negative = inhibition) at 10uM” value is 6.74%.
Regarding `CCCOC(=O)CSC1=C(C#N)C(c2ccccc2Cl)CC(=O)N1` (stereo not shown), the “hERG current change (%, negative = inhibition) at 10uM” value is given as -6.15%.
On to `COc1ccc(N2CCN(C(=O)c3ccc(C)c(Cl)c3)CC2)cc1`, for which the “hERG current change (%, negative = inhibition) at 10uM” value was -29.3%.
Turning to `CCOC(=O)c1ccc(NC(=S)N(CCN2CCCCCC2)Cc2ccco2)cc1`, the “hERG current change (%, negative = inhibition) at 10uM” value is listed as -78.3%.
Regarding `CCOc1ccc(C2C3=C(CCCC3=O)Nc3nc(C(F)(F)F)nn32)cc1OC` (stereo not shown), the “hERG current change (%, negative = inhibition) at 10uM” value is recorded as -3.02%.
Consider `CC1(C)Cc2c(cnn2-c2ccccc2)C(=O)/C1=N\NC(=O)c1ccccc1`, for which the “hERG current change (%, negative = inhibition) at 10uM” value was 12.6%.
Next, `CCN(CC)C(=O)Cn1cc(C(=O)C(=O)N2CCN(Cc3ccccc3)CC2)c2ccccc21`: 8.19%; `Cc1ccc(C)c(/C(O)=C2\C(=O)C(=O)N(CCCn3ccnc3)C2c2ccncc2)c1` (stereo not shown): 16.9%.
Then `C/C(=N\NC(=O)c1ccccc1)c1ccc2c(c1)OCO2`, with 14.2%.
On to `O=C(COC(=O)CNC(=O)c1ccc(Br)cc1)Nc1nnc(-c2ccccc2)o1`, for which the “hERG current change (%, negative = inhibition) at 10uM” value is 3.05%.
As to `CCCOc1ccc(C2C(=O)N(C3CCCCC3)CC(=O)N2CCC)cc1OC` (stereo not shown), the “hERG current change (%, negative = inhibition) at 10uM” value is -11.5%.
On to `O=C(COc1ccc(-c2ccccc2)cc1)N/N=C/c1cc(O)ccc1Br`, for which the “hERG current change (%, negative = inhibition) at 10uM” value turned out to be 2.64%.
For `O=C(O)CC1SC(=Nc2cccc(O)c2)NC1=O` (stereo not shown), the “hERG current change (%, negative = inhibition) at 10uM” value is reported as 3.87%.
Then `CCOc1ccc(NC(=O)CCn2c(=S)oc3ccccc32)cc1`, with 21.3%; and `NC(=O)CC(NC(=O)Cc1ccc(Br)cc1)c1ccc(NC2CCCCCC2)c([N+](=O)[O-])c1` (stereo not shown), with 2.48%; and `CCn1ncc(Cl)c1C(=O)NC(=S)Nc1ccccc1Br`, with 23.9%.
`CN(C)c1cncc(C(=O)O)c1`: the “hERG current change (%, negative = inhibition) at 10uM” value worked out at 15.5%.
On to `OCCC1CN(Cc2cc(F)ccc2F)CCN1CCCc1ccccc1` (stereo not shown), for which the “hERG current change (%, negative = inhibition) at 10uM” value is -70.3%.
For the compound `CN(CCC#N)S(=O)(=O)c1cc2c3c(c1)CCN3C(=O)CC2`, the “hERG current change (%, negative = inhibition) at 10uM” value is on record as 22.1%.
As for `CCCCC/C=N\NC(=O)Cc1ccc([N+](=O)[O-])cc1`, the “hERG current change (%, negative = inhibition) at 10uM” value is 0.637%.
For the compound `CC(=O)Nc1ccc(-c2csc(Nc3ncccn3)n2)cc1`, the “hERG current change (%, negative = inhibition) at 10uM” value is -14.4%.
Next, `Cc1cc(C)c2[nH]c(O)c(N=NC(=O)c3cc4c(s3)CCCC4)c2c1`: 21.7%.
Next, `CCCc1cc(=O)[nH]c(-n2[nH]c3c(c2=O)CCCC3)n1`: 13.9%; `CSc1nc(NC(C)(C)C)nc(Oc2ccc(=O)n(C)n2)n1`: -22.2%.
For the compound `CCOC(=O)C1CCCN(S(=O)(=O)c2cnc(Cl)c(Br)c2)C1` (stereo not shown), the “hERG current change (%, negative = inhibition) at 10uM” value came out at 5.34%.
Take `Cc1ccc(NC(=O)c2cc(NC(=O)C3CC=CCC3C(=O)O)ccc2N2CCOCC2)cc1` (stereo not shown): the “hERG current change (%, negative = inhibition) at 10uM” value is recorded as 5.96%.
Consider `CCCCc1ccc(NC(=O)CSc2nc(=O)n(CCN(C)C)c3c2CCC3)cc1`, for which the “hERG current change (%, negative = inhibition) at 10uM” value is given as -56.4%.
In the case of `Fc1cccc(NC(=S)N2CCCC2)c1`, the “hERG current change (%, negative = inhibition) at 10uM” value is 6.29%.
Take `CC(C)CNC(=S)N(CCCN(C)C)Cc1cc2cc3c(cc2[nH]c1=O)OCCO3`: the “hERG current change (%, negative = inhibition) at 10uM” value was 12%.
With `CC1CCCC(C)N1C(=O)COC(=O)c1cc([N+](=O)[O-])ccc1N1CCOCC1` (stereo not shown), the “hERG current change (%, negative = inhibition) at 10uM” value is reported as -24.9%.
Next, `O=C(NCCSCc1c(F)cccc1Cl)Nc1ccccc1`: -1.79%; `COc1cc(C)ccc1OCC(=O)Nc1ccc2c(c1)OCO2`: -1.08%.
Take `O=C(CSc1nc2ncc(Br)cc2[nH]1)Nc1ccccc1-c1ccccc1`: the “hERG current change (%, negative = inhibition) at 10uM” value is 24.5%.
In the case of `Cc1nnc(N/N=C/c2cccc(C(F)(F)F)c2)n1N`, the “hERG current change (%, negative = inhibition) at 10uM” value is on record as 3.42%.
Turning to `O=C(CCCC(=O)N(CC(=O)NC1CCCCC1)Cc1ccc2c(c1)OCO2)Nc1ccccn1`, the “hERG current change (%, negative = inhibition) at 10uM” value is given as -54.3%.
Regarding `COc1ccc(CC(NC(C)=O)C(=O)NC2CCN(S(=O)(=O)c3ccccc3)CC2)c(OC)c1` (stereo not shown), the “hERG current change (%, negative = inhibition) at 10uM” value is 20.5%.
With `O=C(c1ccc(N2C(=O)C3CCCCC3C2=O)cc1)N1CCCCC1` (stereo not shown), the “hERG current change (%, negative = inhibition) at 10uM” value is reported as -2.22%.
As to `CC(C)c1ccc(NC(=O)Cn2c(=O)oc3ccccc32)cc1`, the “hERG current change (%, negative = inhibition) at 10uM” value is recorded as 19.5%.
As for `CC(C)Cn1c(N)c(C(=O)COC(=O)c2ccccc2F)c(=O)n(C)c1=O`, the “hERG current change (%, negative = inhibition) at 10uM” value is -14.7%.
Turning to `CCCCOc1ccc(CNC(=O)NS(=O)(=O)c2ccc(OCC)cc2)cc1`, the “hERG current change (%, negative = inhibition) at 10uM” value is given as 13%.
Regarding `CC(NC(=O)/C=C/c1ccccc1[N+](=O)[O-])C1CC2CCC1C2` (stereo not shown), the “hERG current change (%, negative = inhibition) at 10uM” value is 8.42%.
On to `CCOC(=O)C1C(c2ccc(C(=O)O)cc2)NC(=O)NC1(O)C(F)(F)F` (stereo not shown), for which the “hERG current change (%, negative = inhibition) at 10uM” value was -1.42%.
With `COc1ccc(O)c(C(=O)c2cc(C#N)c(=O)n(CC3CCCO3)c2)c1` (stereo not shown), the “hERG current change (%, negative = inhibition) at 10uM” value was -25.3%.
As for `Cc1ccc(C)c(-n2c3nc(=O)[nH]c(=O)c-3cc3cc([N+](=O)[O-])ccc32)c1`, the “hERG current change (%, negative = inhibition) at 10uM” value was -15%.
On to `O=C(Nc1cc2c3c(c1)CC(=O)N3CCC2)c1ccccc1F`, for which the “hERG current change (%, negative = inhibition) at 10uM” value worked out at 0.297%.
On to `COc1ccc(C(=O)N/C(=C\c2ccco2)C(=O)NCCN2CCOCC2)cc1`, for which the “hERG current change (%, negative = inhibition) at 10uM” value amounted to 8.33%.
On to `COC(=O)c1ccc(C2=NOC(C)(c3nnc(Cc4ccccc4)o3)C2)cc1` (stereo not shown), for which the “hERG current change (%, negative = inhibition) at 10uM” value was -0.775%.
